# Laboratory results from PubChem BioAssay AID686979 (National Center for Advancing Translational Sciences (NCATS), 2013).
# Out of some 420,000 compounds screened, about 50,000 (12%) were called active. The shares of active, inactive and inconclusive entries below differ from those in the screen. The call rests on the fitted dose curve; in most records, active means well fitted inhibition curve with a large enough effect; inconclusive means small, poorly fitted or top-dose-only effect; inactive means flat fitted curve, though single readings scatter. No potency is given beside an inconclusive call; the fits are too rough.
# Test: qHTS for Inhibitors of human tyrosyl-DNA phosphodiesterase 1 (TDP1): qHTS in cells in presence of CPT; further: nearly all actives have a fitted effect of over 55% in size
# Settings: chicken DT40 Tdp1-/-;hTDP1 cells + 20 nM CPT, ATP luminescence, 48 h; activity change, negative = growth inhibition: at 46.2 µM (top of the series)
# In short: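 Chicken DT40 Tdp1-/- cells complemented with human TDP1, 400 cells/well, exposed to compounds plus 20 nM camptothecin for at least 48 h at 37 C; viability read as ATP content by CellTiter-Glo luminescence.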
# On the % scale 0 is the no-effect control and ±100 the full control effect; potency means the concentration at half of the fitted maximal effect; tags describe the fitted curve by direction and shape.
SMILES,Potency,"activity change, negative = growth inhibition"
Cc1ccc(C2=NN(CC(=O)NC(C)c3ccccc3)C(=O)CC2)cc1 (stereo unspecified),inactive,
CC1(C(=O)OCC(=O)NNC(=O)COc2ccc(Cl)cc2)CC1(Cl)Cl (stereo unspecified),inactive,
Cc1ccc(Cn2ncc3c(N4CCCC4)ncnc32)cc1,"inconclusive [inhibitor, single point]",
O=C(O)c1ccc2c(c1)OCO2,inactive,
CCOC(=O)C1(CCCc2ccccc2)CCN(C(=O)CCc2cnccn2)CC1,"inconclusive [inhibitor, single point]",
FC(F)Oc1ccc(NC(=S)Nc2ccc3cn[nH]c3c2)cc1,inactive,
CCc1nc2ccc(C(=O)N3CCCCC3)cn2c1N(CCC(C)C)CCN(C)C,inactive,
COc1ccc(NC(=O)C2CCC(CNS(=O)(=O)c3csc(C(N)=O)c3)CC2)cc1 (stereo unspecified),,inconclusive: -30.7% [inhibitor]
CCOC(=O)c1cnc(Nc2nc3ccccc3o2)nc1C,active: 3.16 µM,
COc1ccccc1C(=O)NCCCn1cc(Br)c(C)n1,"inconclusive [inhibitor, single point]",
O=C(CN1CCCN(Cc2ccc(F)cc2Cl)C1=O)NC1CCCCCC1,"inconclusive [inhibitor, single point]",
O=C(c1ccccc1[N+](=O)[O-])N1CCN(c2ccc(N3CCOCC3)nn2)CC1,inactive,
CC(C)CNc1ncnc2c1ncn2[C@H]1CN(Cc2ccc(F)cc2)C[C@@H](CO)O1,"inconclusive [inhibitor, single point]",
CCC(C)(C)C1CCC2(CC1)NC(=O)N(CC(=O)NCCOc1ccccc1)C2=O (stereo unspecified),"inconclusive [inhibitor, partial curve]",
COC(=O)c1cc(S(=O)(=O)NCCc2sccc2C)c[nH]1,inactive,
COc1cc(CNC(=O)c2cc(-c3ccc(F)cc3C)n[nH]2)cc(OC)c1,"inconclusive [inhibitor, partial curve]",
CCOC(=O)c1cccc(NC(=O)c2cc(S(=O)(=O)N3CCCC3)cn2C)c1,inactive,
O=C(Cc1cccc(C(F)(F)F)c1)NCc1ccc(Cl)cc1,inactive,
Cc1c(C(=O)OCC(=O)N2CCCC2)cccc1[N+](=O)[O-],inactive,
O=C(Cc1ccc(-n2c(=O)[nH]c3ccccc3c2=O)cc1)N1CCN(c2ccccc2)CC1,"inconclusive [inhibitor, partial curve]",
CC(=O)Nc1cccc(C(=O)N2CCN(S(=O)(=O)c3ccc4ccccc4c3)CC2)c1,inactive,
CCCCCCCCNCCS(=O)(=O)NCCCCCCCC,"inconclusive [inhibitor, single point]",
Cc1ccc(CSc2oc(-c3ccco3)nc2S(=O)(=O)c2ccc(Cl)cc2)cc1,"inconclusive [inhibitor, single point]",
CCN(CC)C(=O)C1=C(C)N(Cc2ccc(C(C)(C)C)cc2)C(=O)C(CC(=O)NCc2cccs2)C1 (stereo unspecified),active: 23.1 µM,
C#CCNC(=O)C1=C[C@H](C)C[C@H](OCc2ccc(CO)cc2)O1,inactive,
COc1ccc(-c2onc(C)c2C)cc1S(=O)(=O)Nc1ccc(OC(F)(F)F)cc1,"inconclusive [inhibitor, single point]",

SMILES,Potency,"activity change, negative = growth inhibition"
O=C1CCCC2=C1C(c1cccc(Br)c1)n1nc(-c3ccco3)nc1N2 (stereo unspecified),"inconclusive [inhibitor, single point]",
O=C(COC(=O)c1cccs1)NCC1CCCCC1,inactive,
Cc1csc(=O)n1CCC(=O)OCC(=O)N(CC(C)C)c1c(N)n(Cc2ccccc2)c(=O)[nH]c1=O,inactive,
CCC1CCCCN1C(=O)c1sc2ncnc(N(CC)CC)c2c1C (stereo unspecified),"inconclusive [inhibitor, single point]",
CC1CCCN(c2ccc(C(=O)OCC(=O)N3c4ccccc4Sc4ccccc43)cc2[N+](=O)[O-])C1 (stereo unspecified),active: 18.4 µM,
CCn1cc(C(=O)O)c(=O)c2cc(F)c(N/N=C/c3ccccc3[N+](=O)[O-])cc21,active: 4.11 µM,
Cc1ccc(CNC(=O)CSc2ccc(-c3sc(-c4ccccc4)nc3C)nn2)cc1,inactive,
COC(=O)c1cc2sc(C)cc2n1Cc1ccccc1,"inconclusive [inhibitor, single point]",
CCn1c(C)c(C2=CCN(S(=O)(=O)c3ccc(C)cc3)CC2)c2ccccc21,"inconclusive [inhibitor, single point]",
Cc1ccccc1-n1nnnc1SCC(=O)NCC1(N2CCOCC2)CCCCC1,"inconclusive [inhibitor, single point]",
COc1ccccc1CNC(=O)c1cc(-c2ccccc2)nn1CC1CC(c2cccnc2)=NO1 (stereo unspecified),"inconclusive [inhibitor, partial curve, poor fit]",
O=C(O)c1ccc(CS(=O)(=O)c2c(Cl)cccc2Cl)o1,inactive,
Cc1ccccc1-n1sc2cc(F)ccc2c1=O,active: 1.84 µM,
O=C1c2cnc3nc(SCc4cccc(Cl)c4)nn3c2CC2c3ccccc3CCN12 (stereo unspecified),active: 14.6 µM,
O=C(O)c1ccc2c(c1)C(=O)N(c1ccc(Cl)cn1)C2=O,inactive,
O=S(=O)(Nc1ccc2nc(N3CCOCC3)sc2c1)c1ccccc1,"inconclusive [inhibitor, single point]",
COc1ccc(OC)c(-c2cc(C(=O)Nc3c(C)nn(Cc4ccc(Cl)cc4)c3C)no2)c1,"inconclusive [inhibitor, single point]",
O=C(Nc1nc(-c2ccc(Cl)s2)cs1)c1cccs1,active: 23.1 µM,
COc1ccc(CNC(=O)c2cc3c(=O)[nH]c4ccccc4c3n2C)cc1,"inconclusive [inhibitor, single point]",
Cc1ccccc1C(=O)c1cccn1CC(=O)NCc1ccccc1Cl,"inconclusive [inhibitor, single point]",
CN(C)c1ccc(C(=N)Cc2ccc3ccccc3n2)cc1,active: 20.6 µM,
CC(Sc1ncnc2sc(-c3ccccc3)cc12)C(=O)NCC1CCCO1 (stereo unspecified),"inconclusive [inhibitor, single point]",
C[C@]12CCC3C(CC=C4C[C@@H](O)CC[C@@]43C)C1CCC2[C@]1(C)CCC(=O)O1 (stereo partly specified),"inconclusive [inhibitor, single point]",
CCOc1ccc(CCNC(=O)CN2C(=O)c3cccnc3Oc3ccc(C)cc32)cc1OCC,active: 20.6 µM,
COc1ccc(NC(=O)c2ccco2)cc1NC(=O)C(C)Oc1ccc(Cl)cc1Cl (stereo unspecified),active: 9.2 µM,
CN1CCN(S(=O)(=O)c2ccc(NC(=O)c3ccccc3Cl)cc2)CC1,inactive,

SMILES,Potency,"activity change, negative = growth inhibition"
CC(=O)CC1c2cc(F)ccc2C=C(c2ccsc2)N1c1ccc(C#CC2(O)CCCCC2)cc1 (stereo unspecified),"inconclusive [inhibitor, single point]",
Cc1ccc(SCc2nc(N)nc(Nc3ccccc3C)n2)c(C)c1,"inconclusive [inhibitor, single point]",
O=S(=O)(c1ccc(Br)cc1)c1nc(-c2ccco2)oc1SCc1ccccc1F,"inconclusive [inhibitor, single point]",
O=C1CC(c2ccco2)CC(O)=C1C=Nc1ccccc1-c1ccccc1 (stereo unspecified),active: 18.4 µM,
CC(=O)c1cc(-c2ccc(F)cc2)n(CC(=O)NC2CCCCCC2)c1C,"inconclusive [inhibitor, single point]",
Cc1n(Cc2ccccc2)c2ccccc2[n+]1Cc1ccccc1,active: 1.16 µM,
CCCOc1ccc(-c2cccc(NS(=O)(=O)c3cccs3)c2)nn1,"inconclusive [inhibitor, single point]",
COc1ccc(N(CC(=O)Nc2cccc(N(C)S(C)(=O)=O)c2)S(=O)(=O)c2ccccc2)cc1Cl,active: 10.3 µM,
Nc1nc(SCC(=O)N2CCCC2)[nH]c(=O)c1NC(=O)c1ccco1,inactive,
COc1cc(O)ccc1C=O,inactive,
Cn1c2ccc(Cl)cc2c2nc3ccccc3nc21,"inconclusive [inhibitor, single point]",
O=C(CCNC(=O)C1CCN(S(=O)(=O)c2ccccc2)CC1)NCc1cccnc1,inactive,
O=C(Nc1nc2c(s1)COc1ccccc1-2)c1cccs1,active: 11.6 µM,
O=C(c1cc(-c2ccncc2)nc2ccccc12)N1CCOCC1,inactive,
N#Cc1cccc(S(=O)(=O)NCC(=O)OCC(=O)NCc2ccccc2)c1,inactive,
Cc1cccc(NC(=O)COc2ccccc2C(=O)Nc2ccccc2)c1,"inconclusive [inhibitor, single point]",
O=C(COC(=O)c1ccc([N+](=O)[O-])o1)NC1CCCCC1,active: 0.0082 µM,
CCOc1ccccc1CNC(=O)CCCn1c(=O)c2cccn2c2cccnc21,"inconclusive [inhibitor, single point]",
Cc1cnc(CNC(=O)CC2C(=O)NCCN2Cc2ccccc2F)cn1 (stereo unspecified),inactive,
O=C(c1nc[nH]c1C(=O)N1CCc2ccccc2C1)N1CCc2ccccc2C1,"inconclusive [inhibitor, single point]",
CCOC(=O)C1CCN(CCC(=O)Nc2ccc(C)c(C)c2)CC1,inactive,
N#Cc1ccccc1CSc1nc2ccsc2c(=O)n1Cc1ccccn1,"inconclusive [inhibitor, partial curve]",
COc1ccccc1N1CCN(C(=O)c2ccc(NS(=O)(=O)c3ccc(C)cc3)cc2)CC1,"inconclusive [inhibitor, single point]",
Cc1ccc(N(CC(=O)NCCSc2nc3ccccc3s2)S(=O)(=O)c2ccccc2)c(C)c1,"inconclusive [inhibitor, single point]",
